# Experimental data published in publication PMC6919601, “Identification of Plasmodium dipeptidyl aminopeptidase allosteric inhibitors by high throughput screening” (PLoS ONE, 2019).
# In all, about 110,000 compounds went through this assay and about 230 (0.21%) showed an effect of 50% or more. Some of the results follow.
# Molecular target: DPAP1 (Plasmodium falciparum, UniProt Q8IIJ9)
# Test: primary screen, percent inhibition; read by cleavage of a fluorogenic dipeptide substrate; higher = more effect of the substance
# Parameters: species or system P. falciparum D10 trophozoite lysates; single well
# 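Also: 30 min substrate incubation versus DMSO and 10 µM JCP410 controls.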
# Sequence of DPAP1 (Q8IIJ9 whole entry, looked up): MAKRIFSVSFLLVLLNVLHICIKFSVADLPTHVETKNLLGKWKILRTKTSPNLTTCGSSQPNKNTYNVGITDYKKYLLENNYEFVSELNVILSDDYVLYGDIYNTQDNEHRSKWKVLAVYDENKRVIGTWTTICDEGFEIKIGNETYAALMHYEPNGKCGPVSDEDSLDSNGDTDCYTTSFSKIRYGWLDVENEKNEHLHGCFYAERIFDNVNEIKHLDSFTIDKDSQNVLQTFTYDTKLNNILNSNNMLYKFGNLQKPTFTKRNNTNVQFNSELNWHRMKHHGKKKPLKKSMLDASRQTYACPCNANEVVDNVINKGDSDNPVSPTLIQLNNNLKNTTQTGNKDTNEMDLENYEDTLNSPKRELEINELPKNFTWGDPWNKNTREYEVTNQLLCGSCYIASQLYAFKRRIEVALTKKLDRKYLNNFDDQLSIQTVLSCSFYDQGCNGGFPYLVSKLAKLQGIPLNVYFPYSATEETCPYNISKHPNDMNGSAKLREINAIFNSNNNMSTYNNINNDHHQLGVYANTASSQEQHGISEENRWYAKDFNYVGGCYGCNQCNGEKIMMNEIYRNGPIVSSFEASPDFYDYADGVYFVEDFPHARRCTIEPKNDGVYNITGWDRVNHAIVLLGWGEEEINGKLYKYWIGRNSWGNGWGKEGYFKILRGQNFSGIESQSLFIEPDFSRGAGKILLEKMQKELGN
row,SMILES,% Inhibition @ 10 uM
1,CC(C)(C)C1CC(C(F)(F)F)n2nc(C(=O)Nc3cccnc3Cl)cc2N1 (stereo not drawn),-3.05%
2,CC1CC(=O)C2=C(C1)OC(N)=C(C#N)C2c1ccc(Br)s1 (stereo not drawn),3.54%
3,c1ccc(NCc2cn3ccccc3n2)cc1,-2.03%
4,C=CCN(CC=C)C(=O)c1ccc(OC)c(OC)c1,-1.93%
5,Cc1ccc(C2=CC(c3ccc(Br)cc3)n3ncnc3N2)cc1 (stereo not drawn),-4.26%
6,O=C(O)c1ccc(NC(=O)c2cc([N+](=O)[O-])ccc2Cl)cc1,-0.197%
7,CC(=O)c1c(C)n(-c2cccc(Cl)c2)c2ccc(O)cc12,-0.0217%
8,O=C(c1ccccc1Nc1ccccc1)N1CCCCC1,2.22%
9,COc1cc(NS(=O)(=O)c2ccc(Br)cc2)c(OC)cc1Cl,-3.18%
10,CC(=O)c1ccc2c(c1)C(=O)c1cc(C(C)=O)ccc1-2,3.34%
11,CCOc1ccc(Cl)cc1S(=O)(=O)NCc1cccnc1,5.66%
12,CSC1=NSC2=NC(=O)/C(=C\c3ccc(C)cc3)C(=N)N12,-1.31%
13,O=C(C1CCN(S(=O)(=O)c2cccc3nsnc23)CC1)N1CCn2c1nc1ccccc12,0.208%
14,CCN1C(=O)C(CC(=O)O)S/C1=N/c1ccc(F)cc1 (stereo not drawn),-5.27%
15,Cc1oc2cc(O)cc(C)c2c(=O)c1Oc1ccccc1,2.79%
16,CN(C1CCCCC1)S(=O)(=O)c1ccc(-n2cccn2)cc1,-2.65%
17,Cc1cc(C)nc(NC(=O)c2sc3ccccc3c2Cl)c1,-2.07%
18,O=C1c2cccnc2C(=O)N1Cc1ccc2c(c1)OCO2,-1.82%
19,O=C(CC(c1ccc(F)cc1)N1Cc2ccccc2C1=O)N1CCN(C(=O)c2ccco2)CC1 (stereo not drawn),-5.54%
20,OCCNCc1cc(Cl)ccc1OCc1ccc(Cl)cc1,9.88%
21,O=C(C(Cc1ccccc1)n1cccc1)N1CCN(Cc2ccccc2)CC1 (stereo not drawn),-0.692%
22,CC(C)C[C@@H](C(=O)NCC#N)c1cccc(-c2cccc(OC3CCN(C)C3)c2)c1 (stereo partly drawn),1.7%
23,CC(C)(C)NC(=O)c1nn2c(C(F)(F)F)cc(-c3ccco3)nc2c1Br,-0.992%
24,Cc1cc(Cl)ccc1OCC(=O)NC1CCCC1,0.147%
25,COc1cc(C2C(C(=O)c3cc4ccccc4o3)=C(O)C(=O)N2c2nnc(C)s2)ccc1O (stereo not drawn),0.413%
26,COc1ccccc1NC(=O)/C(=C/c1cccs1)NC(=O)c1ccc(C)c(C)c1,0.746%

row,SMILES,% Inhibition @ 10 uM
1,O=C(CNC(=O)c1cc2ccccc2o1)NCc1cccs1,-3.93%
2,O=C1C(Cl)=C(N2CCOCC2)C(=O)N1c1cccc(Cl)c1Cl,1.82%
3,COc1ccc(OCC(=O)NCCC23CC4CC(CC(C4)C2)C3)cc1,4.85%
4,Cn1c(C(=O)O)c(CC(=O)N2CCC(Cc3ccccc3)CC2)c2ccccc21,2.84%
5,C/C(=C\c1ccccc1)CN(C)C1CCN(C)CC1,1.26%
6,Nc1ccc(C2CC(=O)NC(=O)N2)cc1 (stereo not drawn),3.61%
7,COCc1cc(C)nc2sc(C(=O)Nc3ccc(Cl)cc3Cl)c(N)c12,3.8%
8,CO/C(O)=C1\C(C)=NC2=C(C(=O)CCC2)C1c1ccccc1OC (stereo not drawn),2.45%
9,Nc1cccc(/N=C/c2nc(-c3ccccc3Br)oc2O)n1,-2.27%
10,CC12CN3CC(C)(CN(C1)C3c1ccc3ccccc3c1O)C2=O (stereo not drawn),0.878%
11,O=C(NCc1cccs1)c1ccc(CS(=O)(=O)Cc2cccc(Cl)c2)o1,-0.971%
12,CC(=O)Nc1ccc(N/C=C/C(=O)c2ccc(-c3ccccc3)cc2)cc1,1.57%
13,O=C(NC1(C(F)(F)F)C(=O)Nc2c1c(=O)[nH]c(=O)n2-c1ccccc1F)c1ccc(Cl)cc1 (stereo not drawn),1.61%
14,Cc1sc(C)c(-c2c(C)sc(C)c2C(=O)O)c1C(=O)O,0.709%
15,Cc1ccc(Cl)cc1NC(=O)c1ccc(N(C)S(C)(=O)=O)cc1,3.49%
16,CC1(C)CC(=O)/C(=C/c2cccs2)C(C)(C)N1,1.66%
17,O=C(/C=C/c1ccccc1Cl)N1CCOCC1,-2.12%
18,Cc1nc2ncnn2c(C)c1CCC(=O)NC(C)C,-4.1%
19,O=C(NCc1ccccc1)c1c(NC(=O)C2COc3ccccc3O2)sc2c1CCCC2 (stereo not drawn),-3.75%
20,CC(C)(C)c1ccc(C(=O)NCCc2ccc(S(N)(=O)=O)cc2)cc1,2.82%
21,c1ccc(-c2cn(-c3ccccc3)c3ncnc(NCc4ccco4)c23)cc1,10.5%
22,Cc1ccc(-c2csc(/C(C#N)=C/c3ccccc3[N+](=O)[O-])n2)cc1,4.33%
23,CCOc1ccc(C(=O)Nc2ccc3c(c2)OCCO3)cc1,2.13%
24,Cc1n[nH]c(C)c1CCCCCOc1ccccc1F,-4.3%
25,COc1ccc(S(=O)(=O)NCc2ccc(C(=O)NC3CCCCCCC3)cc2)cc1,-1.76%
26,Cc1ccc(CNC(=O)C(C)N2Cc3ccccc3C2=O)cc1 (stereo not drawn),0.822%

row,SMILES,% Inhibition @ 10 uM
1,COCCCN(Cc1ccco1)C(=O)c1cc2c(Cl)nc3ccc(C)cc3c2s1,-1.7%
2,Clc1ccc(-n2ncc3c(NC4CCCCC4)ncnc32)cc1,7.77%
3,COc1ccc(/C=C(/NC(=O)c2ccccc2)C(=O)O)c(OC)c1OC,-4.93%
4,Cn1c(SCC(=O)Nc2nn(-c3ccccc3)nc2C(N)=O)nnc1-c1cccnc1,-0.834%
5,COc1ccccc1CNc1ncccc1N1C(=O)CCC1=O,-4.69%
6,O=[N+]([O-])c1ccc(Nc2ccccc2O)c2nonc12,12.6%
7,CCn1c2ccccc2c2cc(CNc3cccc(C)c3)ccc21,-7.35%
8,Cc1nc2ccn(Cc3cccs3)c(=O)c2cc1C(=O)NCCc1ccco1,0.0575%
9,CCCCSc1nnc(NC(=O)CSc2ccc3ccccc3n2)s1,3.66%
10,COc1ccc(NC(=O)c2ccco2)cc1Cl,-4.93%
11,CCOC(=O)C1=C(O)/C(=C\c2cc(C)n(-c3ccccc3C(=O)OC)c2C)N=C1C,3.47%
12,CCOC(=O)c1c(N)nn(C(=O)c2ccccc2F)c1-c1ccc(OC)cc1,-0.222%
13,Cc1ccsc1/C=C1/N=C(c2cccc3ccccc23)OC1=O,3.58%
14,CCN(CC)CCCNC(=O)Cn1cnc2sc(C)c(S(=O)(=O)N3CCC(C)CC3)c2c1=O,2.06%
15,CN(C)c1ccc(CN2CCC(Cc3ccccc3)CC2)cc1,-6.47%
16,Cc1cccc(OCC(=O)Nc2ccc(S(=O)(=O)N3CCCCCC3)cc2)c1,-6.08%
17,Cc1oc2ncnc(NC3CCCC3)c2c1C(=O)O,-5.76%
18,Oc1ccc(Br)cc1/C=N/n1cnnc1,22.7%
19,O=C(Cn1c(C(F)(F)F)nc2ccccc21)N1CCCc2ccccc21,4.88%
20,CCOc1nc(-c2ccccc2)cc(-c2ccccc2)n1,3.53%
21,CC(C)Sc1nnc(N2C(N)=C(C#N)C(c3ccc4c(c3)OCO4)C3=C2CC(C)(C)CC3=O)s1 (stereo not drawn),-1.24%
22,Cc1ccc(-c2nc3c(c(SCC(=O)N4CCCCC4)n2)Cc2c(CO)cnc(C)c2O3)cc1,4.06%
23,O=C(Cc1ccccc1)NCCNC(=O)c1c(O)c2ccccc2oc1=O,6.47%
24,CCOC(=O)/C(C#N)=C1\C(=O)Nc2ccccc21,2.41%
25,O=C(Nc1ncc2c(n1)CC(c1ccccc1Cl)CC2=O)c1ccccc1 (stereo not drawn),-6.67%
26,Cc1ccc(CCN2CC(C(=O)NCCCOC(C)C)CC2=O)cc1 (stereo not drawn),-1.79%

row,SMILES,% Inhibition @ 10 uM
1,CCOc1ccc(NC(=O)C(CC(=O)O)Cc2ccc(Br)cc2)cc1 (stereo not drawn),1.13%
2,Cc1sc(N)nc1-c1ccccc1,3.44%
3,CC1=CSC2=NC(=O)/C(=C/c3ccc(OCc4ccccc4)c(Cl)c3)C(=N)N12,1.75%
4,CCOC(=O)c1cc(-c2ccc(C)cc2)n(CC(=O)NCc2ccc3c(c2)OCO3)c1C,1.72%
5,C=CCOc1c(Br)cc(CNC(C)(C)C)cc1OCC,-5.15%
6,COc1ccc(C=C2C(=O)c3ccccc3C2=O)cc1O,-6.23%
7,COc1ccccc1-n1c(CNC(=O)c2ccco2)nnc1SCC(=O)Nc1nnc(C)s1,1.08%
8,COc1cccc(CNC(C)(C)CO)c1OCc1ccc(Cl)cc1,-8.33%
9,Cc1ccc(CNC(=O)CN2CC(=O)N3CCCC3C2=O)cc1 (stereo not drawn),-1.67%
10,O=C(NC1CCCCCC1)c1ccc(CS(=O)Cc2ccc(Cl)cc2)o1 (stereo not drawn),0.951%
11,Cn1c(=O)c2c(nc3n(CCCO)c(-c4ccc(F)cc4)cn23)n(C)c1=O,-0.0959%
12,CCOC(=O)c1cnc2cc(F)c(F)cc2c1O,-4.4%
13,CCN(CC)CCN(C)C(C)Cc1ccccc1F (stereo not drawn),-3.42%
14,c1c2c(cc3c1OCCO3)C1(CCCC1)CNC2,-8.21%
15,COc1ccc(-c2c(Cc3ccccc3)nn3c(-c4ccccc4)cc(C)nc23)cc1,-0.436%
16,COc1ccc(CCNC(=O)CCc2c(C)nc3c4cccnc4nn3c2C)c(OC)c1,4.74%
17,Cc1cc(C(F)F)nn1CC(=O)Nc1ccccc1Cl,-4.82%
18,O=C(Nc1ccc(O)cc1)/C(=C\c1cccs1)NC(=O)c1ccccc1,0.673%
19,COc1ccc(CC(=O)NCc2cccs2)cc1OC,-3.71%
20,CCN1CCN(Cc2ccc3c(c2)Cc2ccccc2-3)CC1,4.51%
21,N#CCNC(=O)C(NC(=O)OCc1ccccc1)SCc1ccccc1 (stereo not drawn),-6.98%
22,Cc1ccc2[nH]c(C3=C(N)N(C4CCCCCCC4)CC3=O)nc2c1,3.74%
23,CC(NC(=O)C(O)c1ccccc1)c1ccccc1 (stereo not drawn),1.04%
24,CCOc1cc(-c2nc(-c3cc4cc(OC)ccc4nc3O)no2)cc(OCC)c1OCC,-7.33%
